Data taken from publication PMC2922928 (Nature structural & molecular biology, 2010).

Tests used:
[1] = target: untagged Mdm2(10–139) (human, UniProt Q00987 10-139); assay: ELISA
[2] = target: Flag-tagged full-length Mdm2 (human, UniProt Q00987); assay: ELISA
[3] = target: GST-Mdm2(10–139) (human, UniProt Q00987 10-139); assay: native gel or EMSA

B1: p53-TAD-I([…]) peptide (peptide)
peptide: not shown
B1 showed an IC50 [1] of ~1000 nM.

B2: p53-CTD([…]) peptide (peptide)
peptide: not shown
B2: binds [2]; binds [3].

B3: His-tagged p53(ΔC30) purified from bacteria (domain or fragment)
chain: not shown
B3: binds [2].
